Test results: patent publication CN116199779A (BEIJING DONGFANG BIOTECH CO LTD; BEIJING JINGYI TAIXIANG …, dated 2023)
Numbering of substitutions follows the chain as printed.

B1: 人源化抗体HB-Ⅱ (human IgG1, Ck) (antibody)
heavy: QVQLVQSGAEVKKPGASVKVSCKASGYTFTNYWMHWVRQAPGQGLEWIGEINPSNGRTNYNEKFKTRATLTVDTSTSTAYMELSSLRSEDTAVYYCARWGQLGLREGYYAVDYWGQGTLVTVSSASTKGPSVFPLAPSSKSTSGGTAALGCLVKDYFPEPVTVSWNSGALTSGVHTFPAVLQSSGLYSLSSVVTVPSSSLGTQTYICNVNHKPSNTKVDKRV[human IgG1 Fc with changes not given here]
light: DIQMTQSPSSLSASVGDRVTITCRASQDISNYLNWYQQKPGGAVKLLIYYTSRLHSGVPSRFSGSGSGTDYTFTISSLQPEDIATYFCQQGNTLPPTFGGGTKVEIKRTVAAPSVFIFPPSDEQLKSGTASVVCLLNNFYPREAKVQWKVDNALQSGNSQESVTEQDSKDSTYSLSSTLTLSKADYEKHKVYACEVTHQGLSSPVTKSFNRGEC
notes: also called HB-II
B2: 人源化抗体HB-Ⅲ (human IgG1, Ck) (antibody)
heavy: QVQLVQSGAEVKKPGASVKVSCKASGYTFTNYWMHWVRQAPGQGLEWIGEINPSNGRTNYNEKFKTRATLTVDTSTSTAYMELSSLRSEDTAVYYCARWGQLGLREGYYAVDYWGQGTLVTVSSASTKGPSVFPLAPSSKSTSGGTAALGCLVKDYFPEPVTVSWNSGALTSGVHTFPAVLQSSGLYSLSSVVTVPSSSLGTQTYICNVNHKPSNTKVDKRV[human IgG1 Fc with changes not given here]
light: B1 light with Q3V
notes: also called HB-III

How the values were obtained:
LILRB4抗原 (人LILRB4蛋白胞外段) = biological target: T1, LILRB4抗原 (人LILRB4蛋白胞外段) (human, UniProt Q8NHJ6 22-259); assay: ELISA, coated LILRB4, anti-human IgG-HRP
T1 construct: extracellular domain; also called 白细胞免疫球蛋白样受体亚家族B成员4

THP-1细胞表面的LILRB4 [1] = biological target: T2, THP-1细胞表面的LILRB4 (human, UniProt Q8NHJ6 22-448); assay: flow cytometry on THP-1 cells
T2 construct: whole, on cells; Endogenous LILRB4 on THP-1 cells; also called 人单核细胞白血病细胞(THP-1)表面LILRB4

THP-1细胞表面的LILRB4 [2] = biological target: T2, THP-1细胞表面的LILRB4; assay: cell-based or functional assay
THP-1细胞表面的LILRB4 [3] = biological target: T2, THP-1细胞表面的LILRB4; assay: cell-based or functional assay; remark: listed apart in the source
THP-1细胞表面的LILRB4 [4] = biological target: T2, THP-1细胞表面的LILRB4; assay: flow cytometry competition on THP-1 cells; competitor FITC-labelled ApoE

Binder	EC50 (LILRB4抗原 (人LILRB4蛋白胞外段)) [mg/L]	EC50 (THP-1细胞表面的LILRB4 [1]) [mg/L]	IC50, NF-κB luciferase reporter in THP-1-NF-κB-Luc cells stimulated with ApoE (THP-1细胞表面的LILRB4 [2]) [mg/L]	IC50 of inhibition of ARG1 secretion by THP-1 cells with ApoE (arginase activity) (THP-1细胞表面的LILRB4 [3]) [mg/L]	IC50 (THP-1细胞表面的LILRB4 [4]) [mg/L]
B1	0.918				
B2	0.0743	0.386	0.83	30.6	0.426
